Target: PksA SAT-KS-MAT (Aspergillus parasiticus, UniProt Q12053)
Details: 2 mM malonyl-CoA, 10 uM protein, 100 mM K/PO4 pH 7.4, room temp, 60 min; covalent, MAT S993

CC(C)(COP(=O)(O)OP(=O)(O)OC[C@H]1O[C@@H](n2cnc3c(N)ncnc32)[C@H](O)[C@@H]1OP(=O)(O)O)[C@@H](O)C(=O)NCCC(=O)NCCSC(=O)CC(=O)O [malonyl-CoA]
RPLC-FTMS of tryptic active site peptides: SAT and MAT transferase domains bound their respective hexanoyl and malonyl substrates

Reference: publication PMC3334285 (Journal of the American Chemical Society, 2012)
